Over roughly 33,000 sequences, “E-score (-0.5 to 0.5)” has its median near -0.053; the highest 2% begin near 0.37. The list shows a part of the results.
target: Hap1 (UniProt P0CE41); assay: PBM E-score (8-mer binding enrichment) (E-score (-0.5 to 0.5)); higher = stronger / more preferred TF binding; most listed sequences are background and not binding sites; settings: protein concentration: 200 nM; construct: GST-DNA-binding domain
Method: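 Universal 'all 10-mer' protein binding microarrays (Agilent AMADID 015681) probed with GST-tagged S. cerevisiae TFs (full-length or DBD) made by in vitro transcription/translation (PURExpress), about 100-200 nM. Bound TF was detected with fluorescent anti-GST. Each ungapped 8-mer (which stands for itself and its reverse complement) is scored by the PBM enrichment score (E-score), a modified Wilcoxon-Mann-Whitney statistic from -0.5 to +0.5, computed with the Universal PBM Analysis Suite. Scale: above 0.35 generally sequence-specific binding.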

Sequence of UniProt P0CE41 (P0CE41 whole entry, the tested form may be a part): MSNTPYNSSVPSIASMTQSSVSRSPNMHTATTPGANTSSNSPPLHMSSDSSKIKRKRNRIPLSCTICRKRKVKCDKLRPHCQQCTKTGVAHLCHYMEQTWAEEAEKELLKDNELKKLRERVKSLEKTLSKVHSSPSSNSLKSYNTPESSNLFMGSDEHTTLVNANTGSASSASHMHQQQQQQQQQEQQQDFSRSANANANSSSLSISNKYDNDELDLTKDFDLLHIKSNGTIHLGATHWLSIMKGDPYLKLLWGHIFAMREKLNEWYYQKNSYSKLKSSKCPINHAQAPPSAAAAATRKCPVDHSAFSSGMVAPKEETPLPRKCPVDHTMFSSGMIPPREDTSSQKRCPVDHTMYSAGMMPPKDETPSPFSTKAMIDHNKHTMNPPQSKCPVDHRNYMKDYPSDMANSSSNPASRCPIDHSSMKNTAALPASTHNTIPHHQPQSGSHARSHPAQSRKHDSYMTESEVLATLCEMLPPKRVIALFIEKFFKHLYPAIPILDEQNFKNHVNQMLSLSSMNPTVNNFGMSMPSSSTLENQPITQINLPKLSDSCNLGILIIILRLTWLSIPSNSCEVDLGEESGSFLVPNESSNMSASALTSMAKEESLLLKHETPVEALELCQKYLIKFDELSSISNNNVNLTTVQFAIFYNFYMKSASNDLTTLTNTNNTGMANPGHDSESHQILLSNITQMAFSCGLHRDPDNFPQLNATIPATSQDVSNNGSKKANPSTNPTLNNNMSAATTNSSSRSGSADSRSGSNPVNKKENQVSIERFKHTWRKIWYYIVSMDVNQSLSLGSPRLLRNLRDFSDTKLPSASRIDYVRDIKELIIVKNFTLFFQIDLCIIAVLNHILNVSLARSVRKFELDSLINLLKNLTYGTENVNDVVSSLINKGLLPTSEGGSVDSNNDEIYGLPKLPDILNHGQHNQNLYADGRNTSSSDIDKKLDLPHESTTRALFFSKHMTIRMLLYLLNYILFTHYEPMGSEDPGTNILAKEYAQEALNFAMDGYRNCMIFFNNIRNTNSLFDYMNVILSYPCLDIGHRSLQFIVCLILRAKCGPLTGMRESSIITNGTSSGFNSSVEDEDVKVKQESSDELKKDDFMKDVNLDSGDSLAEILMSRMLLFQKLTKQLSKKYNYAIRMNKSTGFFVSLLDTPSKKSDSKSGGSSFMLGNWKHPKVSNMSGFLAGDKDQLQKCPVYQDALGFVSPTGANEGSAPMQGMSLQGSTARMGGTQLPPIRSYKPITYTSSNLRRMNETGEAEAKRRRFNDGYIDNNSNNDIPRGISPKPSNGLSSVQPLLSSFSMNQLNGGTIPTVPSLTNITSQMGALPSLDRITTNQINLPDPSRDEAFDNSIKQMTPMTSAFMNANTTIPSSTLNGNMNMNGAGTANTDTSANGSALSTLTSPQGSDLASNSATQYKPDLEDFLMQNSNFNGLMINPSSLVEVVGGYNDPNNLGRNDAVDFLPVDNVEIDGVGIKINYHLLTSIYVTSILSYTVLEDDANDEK

Sequence | PBM E-score
CTGGTCCC | -0.25
AACTATTA | -0.11
ACTTAATG | -0.0636
AGCGTTCC | -0.162
GATTAATC | 0.354
CTATTGAG | -0.178
CATCCTCG | 0.0457
CCCGGGTC | 0.386
CGGGTAAA | 0.226
AGCGCGGC | 0.045
CTACTCTA | -0.169
CGATTAAA | 0.231
GATCTGAC | -0.116
ATTTGGTA | 0.0304
AAGTGGTA | -0.257
ATTTTTGA | -0.132
AGGGCTCG | 0.114
CCTCACCA | -0.156
AAGAAATG | -0.00404
ACCGAGGG | 0.235
CTCCTCGA | -0.307
ACGGACAC | 0.278
CAACACGG | 0.127
CTTCGCGC | 0.0717
CCAACTAC | -0.0196

Sequence | PBM E-score
CCGCTCAG | -0.0245
CCATCGAG | -0.0288
TATTAATA | 0.0949
AAGACTAT | -0.226
AAGATTCA | -0.037
GACACAGA | 0.0169
CAGCCTAA | -0.354
AAGGGACT | -0.209
ACGTACTC | -0.0119
CCCTATAA | -0.0687
TCCATAAA | -0.138
CGATCCTC | -0.109
CTCTGGTC | 0.0175
AAGGCAGA | -0.147
GTCTCCAC | -0.135
GATCCAGA | 0.0196
CAGCGATA | 0.161
AGATAATC | 0.182
AATGGTTA | -0.0245
CCACGCCG | 0.0416
ATCGAGAC | -0.105
AGCCATAT | -0.138
ATCGTGCA | -0.0776
CAGGTTCA | -0.238
CTGGACTA | -0.15

Sequence | PBM E-score
CCAAGGAG | -0.0607
CGTGTGAA | -0.0927
GCGATCTA | -0.0828
GACACCTA | -0.107
GTTCATAA | -0.165
GTCTGTTA | -0.069
AATCTACC | 0.0844
TACAACAA | -0.0768
CGCTGAGA | -0.0619
TGCGTACA | -0.148
ACTGTCCG | 0.305
CTGTGGTA | -0.112
AACCTTAC | -0.0149
GCCAGAAA | -0.0571
ACACTTCT | -0.119
AGGGCGGC | -0.102
ATTGATAG | -0.186
CCATATAC | -0.123
CAGCAGTC | 0.027
ATATAACA | 0.151
CTATGAAA | -0.119
ACTCTCTC | -0.0452
ATGCGTTG | -0.0581
AGTATACA | -0.126
ACTGTTTG | -0.252

Sequence | PBM E-score
GACTTAAA | 0.035
CTGGGAAC | -0.0849
ACTTTGGA | -0.207
GGTTTAAC | 0.138
GCATCCAC | -0.0499
CAACATAC | 0.0167
GAGTGCGA | -0.0139
CTTAAGCC | 0.193
CCCAACGC | -0.0574
ACTTCACA | -0.209
ACAAGAAT | -0.0632
CAGAGCAG | -0.24
ACGGCCCG | 0.249
AATTGTAC | -0.0831
ATTACGAC | 0.0438
GAGTCCCA | 0.0286
CCCGTTCC | 0.14
AAACTTAA | -0.0507
AGTTAGGG | -0.212
GAGATTCC | 0.211
AATCTTCC | 0.181
ATGTTAGG | -0.203
AGAAGTCT | -0.0864
CACAAACA | 0.0469
CTACATTA | -0.0669

Sequence | PBM E-score
AGAACACC | -0.0387
CCATTAGA | -0.00837
ATCTAATG | -0.0892
ACACAAGA | -0.0983
AGACCGGG | 0.265
CCCGGGCA | 0.376
CTCGAATC | -0.152
CTACCTCA | -0.115
AGCGCTAG | -0.206
CATGTCCG | 0.372
ACGCAAGG | -0.233
CACACGCG | -0.0361
CCGGACGA | 0.431
CCTTCAGA | -0.298
ATAACAGA | -0.0777
ACCGACTG | 0.203
AACAAAAC | -0.0263
AAATCCTT | 0.0613
AGGGTTGA | -0.101
CACCGGTC | 0.227
CAGTAGGA | -0.142
TACCGGCA | 0.353
CGACACTA | 0.085
AGAACAAC | -0.0401
CATTTATA | -0.145

Sequence | PBM E-score
GCCGTGGA | 0.182
AAGCCCTT | -0.221
CATACCCA | -0.133
AGGGGACG | -0.0826
CTGGTTCA | -0.167
GTGTACGA | 0.0174
ACAAGCAC | -0.103
AAAAAGTG | -0.17
CCGGTCGC | 0.161
GCCCAGAC | -0.00848
CCTGAAAA | -0.196
ATAGTGAT | -0.146
AATAAGTA | -0.104
GCGCCCTA | -0.0405
AGATTTGA | -0.138
AGTCTTGC | -0.207
ATCTTTCA | 0.0359
GGGGTTCA | -0.11
AGTCCAAC | -0.176
TAGAAAGA | -0.185
GACGCAGC | -0.183
AATAGGAG | -0.198
AATTGAAG | -0.0322
AGAAGCGC | 0.105
ACTAGGAG | -0.152

Sequence | PBM E-score
ACTCTTAC | -0.109
AAGTGTAG | -0.247
CGGTCCGA | 0.435
ATTTCAAA | -0.104
CACGCGCA | -0.0512
AATAGCTG | -0.15
GGTGGGAA | -0.0333
CCTCCGCC | 0.107
ATCCTTGA | 0.0127
CGAGATGC | -0.0846
ACCCTCAA | -0.134
GGGACCCA | -0.154
AATTTCCG | 0.437
ATATCAGG | -0.0679
CGCCATGA | -0.0975
TACTGTAA | -0.0971
ATTGTCTC | -0.0388
TGAAACCA | 0.0905
AGTAGGCG | -0.0778
CTATAGTA | 0.0683
CAACTCGA | -0.114
ACGACTGA | -0.119
CGGTGGAG | 0.184
CTCAAGCC | -0.0348
GAGAGAGC | -0.0317

Sequence | PBM E-score
CGGCCGAA | 0.449
AGCCTTAT | -0.0107
GGGATCAA | 0.0981
GACGGACA | 0.325
AGGCCGTG | 0.0809
AAGTAATT | 0.00442
ATTATTTC | 0.156
CCTCCCAG | -0.196
CACAACGC | 0.0118
GAATGCGA | 0.0832
CTATCCAG | -0.118
AGTAGCTA | -0.0452
AGCATACA | -0.0454
GGTAGCAC | 0.00404
GTTTCGGA | 0.389
CATGCGCC | 0.0342
CCCAGCGC | 0.0945
AATTGCAA | -0.0885
ATGACGTC | 0.0476
AATTGATG | 0.0475
AACAGGTT | -0.0864
AGTTCATG | 0.024
CAATCAGC | -0.105
AGTTGATC | -0.124
ACTGCCAA | -0.0893

Sequence | PBM E-score
AGGAGAAT | -0.149
ACGAACGA | -0.146
AGAATATC | 0.155
AAGGTCTC | -0.0372
AACCCCTG | -0.0923
TTCGCAAA | 0.17
GCAACGAA | -0.167
ATCTAAAC | 0.0421
AGACGTGA | -0.14
CGTCATGC | -0.119
ATCAATGG | -0.19
CCGATAGG | 0.438
AACTGAGC | -0.0463
AGACATGG | -0.0875
GTTTGTGA | -0.103
GCGCATTA | 0.134
AGATCTTA | -0.212
CTTGCGCA | -0.0398
GTTACTCA | -0.0216
CCGACGGC | 0.298
CGTGATGC | -0.0405
CGGGATGC | 0.123
CGACGGAC | 0.319
GATGTGTA | -0.115
CCATTGGA | -0.205

Sequence | PBM E-score
CTTTGCGC | -0.00074
CATTTCGC | 0.165
ATCAAGCG | 0.0373
AAAATGAA | -0.264
ACAATGTG | -0.193
GTTTGAAA | -0.0169
CGCTTACC | -0.00034
GCCACATA | -0.136
ACATGCGT | -0.105
CCTTAACG | 0.156
AAATGCGG | 0.255
CACCACCA | 0.00125
CGCTTCCA | -0.0186
GTTTGGAA | -0.257
ATTTTACC | 0.201
GGACAGAC | 0.0489
CGCGACAC | 0.126
ATAGGCGG | 0.239
CGAGGAAG | -0.0118
AGTGCGTA | -0.0903
GAAGGATC | -0.114
ACCACGTA | -0.282
CGTGAGCA | -0.0635
CAATACCG | 0.266
ACTTCTCA | -0.318

Sequence | PBM E-score
GACAGTGC | 0.0705
CCTTATGA | -0.074
CCTTTCAG | -0.151
GGAGCGCA | -0.0936
CAAGTTAC | 0.0893
ATCATCTG | -0.0614
AAGATTTC | 0.0896
ACCATTTG | -0.0604
TCAGACCA | -0.138
GAACTAAA | 0.094
AGCTTGAA | -0.163
CGTGTCAA | -0.153
CAGTCCCG | 0.2
GCGATTAA | 0.201
AACTATAT | -0.0114
AGTAGCTG | -0.223
CGTGCTAG | -0.25
GAGGCGTA | 0.0847
CATTTCCG | 0.352
TAGTCTCA | -0.134
AAGGGTGC | -0.0755
ACCCCACA | 0.0369
CAAAAAGA | -0.0968
CGTTAGGC | 0.115
ACCCAGAG | -0.127

Sequence | PBM E-score
CTACGACA | -0.168
CCCGCCAG | 0.0174
CTCGGAGC | 0.322
AACCTACT | 0.0423
AGCTCCAA | -0.276
CCTGGCAA | -0.156
GGCCTCGA | -0.193
ATTACCGC | 0.274
GTCACTAA | -0.0788
AGGCGCGA | -0.0197
ATCAACCC | 0.108
GCTTCCCC | 0.0148
TCAAGGGA | -0.0693
GGAGATCC | 0.138
AATGTCTA | -0.279
TTGCAAAA | -0.00902
CACCGACC | 0.192
CAAGCAAG | -0.13
AATGTTAA | -0.109
AGACCGCA | 0.132
ACTGCGAT | -0.0197
CATTTGGA | 0.0115
AGAGTTCA | -0.273
AGGGCTGG | -0.101
AACATATA | 0.0491

Sequence | PBM E-score
CTAAGTTC | -0.154
GACCCGTC | 0.0739
CGGGGGGA | 0.189
ATAATGGA | 0.00101
ACACAACC | -0.175
GTCAGAAA | -0.387
CATGATTC | -0.133
GGCAAGTA | -0.0484
AATAAAAC | 0.0481
CGTGCAGC | 0.0302
GGGGGCCA | 0.0793
ATTACTAA | -0.0442
ACCCATTC | -0.00249
ATACTATG | 0.00605
ACATGCTG | -0.314
GTATTCCA | -0.101
CGAAGTGC | 0.0814
CCTAGGCG | -0.302
TTACTAAA | -0.0968
AATTCACA | -0.0888
CAACGTTA | -0.127
GACGGGGC | 0.0768
CTACACAC | -0.193
AATAAGCG | -0.0603
CCCGTAGC | 0.0211

Sequence | PBM E-score
GCAATGCC | -0.037
CCACGTAA | -0.139
ACCGGATC | 0.296
ATATTCAA | -0.0463
GGACAAGA | 0.1
CCTAAGAA | -0.175
GTCCCCCA | -0.334
CCACTCCG | 0.271
GTATTGGA | -0.137
GATTGAGA | 0.015
AAGGTTGG | -0.0733
CTTAGTCA | -0.181
AAGCTACG | -0.153
AACGATAC | -0.2
GCATCGCA | 0.0122
AATTAGAT | -0.088
GCCGAAAC | 0.38
GATAGTCC | 0.0635
TAATAACA | -0.125

Source: the supplement of paper PMC3334620
